Assay results as given in PubChem BioAssay (NCATS).
Inconclusive means that the source gave no clear call. Such entries were picked first, then a sample of the others. Potencies beside an inconclusive call are fits to weak or partial responses and may not hold up. Active and inactive are the calls of the source. Unless noted, calls follow the shape of the dose curve; as a rule, active = well fitted curve in the direction sought with a large enough effect; inconclusive = small, poorly fitted or top-dose-only effect, or another doubt; inactive = no such curve, though single readings can be large; an effect the other way counts as inactive or inconclusive.

Assays:
[1] = target: Aldehyde dehydrogenase, mitochondrial (Homo sapiens) (UniProt P05091); assay: qHTS for Inhibitors of the Aldehyde Dehydrogenase Family (ALDH2) Confirmatory screens (AID 2061303; active = well fitted inhibition curve with a large enough effect; inconclusive = small, poorly fitted or top-dose-only effect; inactive = no such curve, though single readings can be large or run the other way; title and protocol of this record describe different tests; also: nearly all actives have a fitted effect of over 45% in size); conditions: ALDH inhibition qHTS; activity change, negative = inhibition: at 45.4 µM (top of the series)
[2] = target: Aldehyde dehydrogenase, mitochondrial (Homo sapiens) (UniProt P05091); assay: qHTS for Inhibitors of the Aldehyde Dehydrogenase Family (ALDH2) Primary screen (AID 2061308); also: nearly all actives have a fitted effect of over 55% in size
[3] = target: Retinaldehyde dehydrogenase 3 (Homo sapiens) (UniProt P47895); assay: qHTS for Inhibitors of the Aldehyde Dehydrogenase Family (ALDH1A3) Confirmatory screens (AID 2061311); conditions: activity change, negative = inhibition: at 46 µM (top of the series); also: nearly all actives have a fitted effect of over 60% in size
[4] = target: Retinal dehydrogenase 2 (Homo sapiens) (UniProt O94788); assay: qHTS for Inhibitors of the Aldehyde Dehydrogenase Family (ALDH1A2) Confirmation screens (AID 2061314); conditions: activity, negative = inhibition: at 45.9 µM (top of the series) unless noted; also: nearly all actives have a fitted effect of over 65% in size
[5] = target: Aldehyde dehydrogenase 1A1 (Homo sapiens) (UniProt P00352); assay: qHTS for Inhibitors of the Aldehyde Dehydrogenase Family (ALDH1A1) Confirmatory screens (AID 2061316); conditions: activity change, negative = inhibition: at 47.3 µM (top of the series); also: nearly all actives have a fitted effect of over 65% in size
Potency is read from the fitted curve at half-maximal effect; tags tell the direction and shape of the fitted curve.

SMILES	Potency [1]	Potency [2]	Potency [3]	Potency [4]	Potency [5]
O=C1Cc2cc(S(=O)(=O)N3CCNCC3)ccc2N1	inconclusive: 12.7 µM [inhibitor, partial curve]	inconclusive: 7.94 µM [inhibitor, partial curve]	inactive	active: 17.9 µM	inconclusive: 12.7 µM [inhibitor, partial curve]
O=C1c2ccccc2C(=O)N1c1cccc(=O)[nH]1	inconclusive: 15.9 µM [inhibitor, partial curve, poor fit]	inconclusive: 14.1 µM [inhibitor, partial curve]	inconclusive: 20.1 µM [inhibitor, partial curve, poor fit]	inconclusive: 12.7 µM [inhibitor, partial curve]	inactive
CCN1CCN(C(=O)N[C@@H](C(=O)N[C@@H]2C(=O)N3[C@@H]2SC(C)(C)[C@@H]3C(=O)O)c2ccccc2)C(=O)C1=O	inactive	inactive	inactive		inactive
CC(=O)Nc1cccc(OCc2cccc(C3Nc4ccccc4C(=O)N3Cc3ccco3)c2)c1 (configuration not stated)	inconclusive: 25.2 µM [inhibitor, partial curve]	inconclusive: 28.2 µM [inhibitor, partial curve]	active: 10 µM	inconclusive: 12.7 µM [inhibitor, partial curve, poor fit]	
Cc1cc(-c2nnc3n2CCCCC3)c(C)n1-c1cccc(C#N)c1	inactive	inconclusive: 15.8 µM [inhibitor, partial curve, poor fit]	inconclusive: 12.7 µM [inhibitor, partial curve]		inconclusive: 11.3 µM [inhibitor, partial curve]
